Among all 44,000 compounds or so, about 340 (0.77%) were called active. Inconclusive results (about 5%) are left out. The call rests on the fitted dose curve; in most records, active means well fitted inhibition curve with a large enough effect; inconclusive means small, poorly fitted or top-dose-only effect; inactive means flat fitted curve, though single readings scatter. Some of the results follow.
Experiment: Acumen qHTS Assay for Inhibitors of the mTORC1 Signaling Pathway in MEF (Tsc2-/-, p53-/-) Cells: Sytravon;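 further: plate controls were DMSO for no effect and rapamycin for full effect; nearly all actives have a fitted effect of over 50% in size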
Conditions: phospho-rpS6 immunofluorescence/PI, 24 h; series mostly up to 38.3 µM; activity change, negative = inhibition: at the top concentration
Summary of the method: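 Tsc2-/-, p53-/- mouse embryonic fibroblasts (empty-vector line) exposed to compound 24 hrs at 37 C, fixed, immunostained for phospho-rpS6 and counterstained with propidium iodide. Acumen laser scanning gives % positive cells from Alexa 488/PI ratio, thresholded using 7.5 nM rapamycin; PI count gives viability.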

Activity change, negative = inhibition, inactive:
COc1ccc(-c2cc(C(F)(F)F)nc(SCCC(=O)Nc3ccccc3F)n2)cc1 0.636%, O=c1c2oc3ccccc3c2n(Cc2cccc(Cl)c2)c(=O)n1Cc1ccco1 1.85%, O=C(Cc1ccccc1)NC1CC(=O)N(c2ccccc2)C1 (stereo unspecified) -4.28%, CCc1ccc(Nc2nn(-c3ccc(OC(F)(F)F)cc3)nc2C(C)=O)cc1 2.88%, Cn1cc(S(=O)(=O)c2cccc(Cl)c2)c(=O)c2cc(F)c(N3CCN(c4ccc(F)cc4)CC3)cc21 -1.1%, Cc1ccc(-c2noc(CNS(=O)(=O)c3ccc(F)cc3)n2)cc1 4.95%, Cc1cccc(OCC(=O)Nc2nc3c(s2)CC(C(C)(C)C)CC3)c1C (stereo unspecified) 0.33%, COc1ccccc1N1CCN(C(=O)CN2C(=O)COc3ccc(S(=O)(=O)N4CCCCCC4)cc32)CC1 1.22%, CCN(CC)c1ccc(NC(=O)c2cnc3c(-c4ccccc4)c(C)nn3c2C)c(C)c1 0%, Cc1c(NC(=O)c2cc(-c3ccc(F)cc3)on2)c(=O)n(-c2ccccc2)n1C -2.45%, Cc1nnc(N2CCN(C(=O)NC(C)C)CC2)c2nn(-c3ccccc3)c(C)c12 -2.85%, Cc1c(C(=O)N(Cc2cccc(F)c2)C2CCS(=O)(=O)C2)oc2cc(Br)ccc12 (stereo unspecified) 0.329%, COc1ccc(NC(=O)CN2C(=O)C3(SCC(=O)N3c3ccccc3)c3ccccc32)cc1Cl (stereo unspecified) 2.53%, COc1ccc(CNC(=O)c2cccc(N3CCCS3(=O)=O)c2)cc1OC -10.4%, CC(C)c1ccc(NC(=O)c2ccc(Cn3nc(N4CCN(c5ccccc5)CC4)ccc3=O)o2)cc1 -11.3%, O=C(Cn1ncn2nc(-c3cccs3)cc2c1=O)NCc1ccccc1Cl -0.526%, CCn1c(=NC(=O)c2ccc(S(=O)(=O)N3CCCC3)cc2)sc2cc(Br)ccc21 5.6%, CCOC(=O)c1c(C)c(-c2ccccc2)n(CC(=O)NC2CCCCCC2)c1C -1.94%, COc1cccc(NC(=O)Cn2cc(C(=O)c3ccc(F)cc3)c(=O)c3cc(OC)ccc32)c1 -19.1%, Cc1cccc(Cn2cnc3c(oc4ccccc43)c2=O)c1 -1.11%, COc1ccc(-c2c(C)nn3c(N4CCN(c5ccccc5F)CC4)cc(C)nc23)cc1OC 0.947%, CCc1c(C)sc2c1CCN(C(=O)Nc1cc(C)ccc1OC)C2c1ccc(F)cc1 (stereo unspecified) 7.32%, Cc1ccc(NS(=O)(=O)c2ccc3[nH]c4c(c3c2)CCCCCC4)cc1 -0.926%, CCN1CCN(C(c2ccccc2F)c2c(O)cc(C)n(CCOC)c2=O)CC1 (stereo unspecified) -0.904%, N#Cc1ccc(NC2=NS(=O)(=O)c3ccccc32)cc1 -3.04%, Cc1cc(C)cc(NC(=O)N2CCC(CN3CCc4ccccc4C3)CC2)c1 -3.44%, CCC(=O)N1CCc2cc(CNS(=O)(=O)c3ccc(Br)s3)ccc21 2.04%, Cc1ccc(C)c(N2C(=O)N(C)c3ccccc3S2(=O)=O)c1 -4.32%, COC(=O)c1c(NC(=O)c2nc(SCc3ccccc3C)ncc2Cl)sc2c1CCCC2 0.616%, COc1ccc(-n2c(C)nc3cc(C(=O)NC4CCCCCC4)ccc32)cc1 -4.3%, CCCN(CCC)CCNC(=O)c1sc2nc3n(c(=O)c2c1C)CCCCC3 2.89%, CC1CCCN(S(=O)(=O)c2ccc(N3CCCCS3(=O)=O)cc2)C1 (stereo unspecified) 0%, CCN(C(=O)Cn1c(=O)nc(-c2ccccc2)c2cc(Cl)ccc21)c1cccc(C)c1 0%, CCOc1ccccc1CNC(=O)c1cnc2sc(N3CCOCC3)nn2c1=O 0.463%, CCOc1ccc(CCNC(=O)Cn2ncc3c([nH]c4ccccc43)c2=O)cc1OCC -0.522%, Cc1cncn1CCc1nc2c3ccccc3nc(SCC(=O)Nc3ccc(F)cc3)n2n1 0.16%, CCc1cccc(NC(=O)C2CCC(CNS(=O)(=O)c3ccc4c(c3)CCCC(=O)N4)CC2)c1 (stereo unspecified) -2.48%, CCc1nc2ccc(C(=O)NCc3ccc(SC)cc3)cc2nc1CC -6.6%, OCCN1CCN(C(c2ccc(Cl)cc2Cl)c2sc3nc(-c4ccco4)nn3c2O)CC1 (stereo unspecified) -1.32%, Clc1ccccc1-c1nnc(-c2ccccc2CNc2ccc(Br)cc2)o1 0.954%, CCOc1ccc(-n2c(SCC(=O)Nc3ccc4c(c3)OCCO4)nc3c([nH]c4ccccc43)c2=O)cc1 -0.428%, COc1ccc(-c2cc(OC(=O)c3ccccc3)c3c(C)oc(C)c3c(=O)c2)cc1OC -7.77%, CC(C)c1ccc2c(c1)NC(c1ccncc1)=NC(c1cccs1)=N2 -18.6%, CCc1cccc(NC(=O)C(NS(=O)(=O)c2ccc3nc(C)sc3c2)C(C)C)c1 (stereo unspecified) -0.0585%, C#CCSc1nc(-c2ccccc2)c2cc(Cl)ccc2n1 0.265%, CCOc1ccccc1NC(=O)CCc1c(C)nc2c(c(C)nn2-c2ccccc2)c1C 0.838%, Cc1ccc(Cl)cc1N1CCN(C(=O)c2ccc3c(c2)N(Cc2ccccc2F)C(=O)c2ccccc2S3=O)CC1 (stereo unspecified) -5.8%, O=C(CCS(=O)(=O)c1cc(Br)cc2c1N(C(=O)C1CC1)CC2)Nc1ccc(F)cc1 -5.27%, Cc1ccc(CNC(=O)c2sc3nc(-c4ccccc4)cn3c2C)cc1 -2.35%, O=C(NCc1ccc(F)cc1)c1ccc(Cn2c(SCc3ccc(F)cc3)nc3cccnc32)cc1 -1.56%, CCCN1C(=O)c2[nH]nc(-c3cccc(OC)c3)c2C1c1ccccn1 (stereo unspecified) 2%, CC(C)Cn1c(=O)c2ccccc2n2c(CCC(=O)NCc3ccc(Cl)cc3)nnc12 -3.86%, Cn1nnc2c(NCc3ccccc3)ncnc21 -0.184%, Cc1cc(C)cc(-n2c(C)nc3cc(C(=O)NCc4ccc(F)cc4)ccc32)c1 -9.54%, O=C(CCC(=O)N1CCSc2ccccc21)NCc1ccccc1Cl -4.46%, CCOc1ccc(CCNC(=O)c2cn(-c3cccc(OC)c3)c(=O)c3ccccc23)cc1 -1.26%, CCC(C)NC(=O)c1ccc2c(c1)N(Cc1ccccc1F)C(=O)c1ccccc1S2=O (stereo unspecified) -9.49%, CCCCn1c(=N)c(C(=O)NC2CCCCC2)cc2c(=O)n3cccc(C)c3nc21 -6.41%, Cn1c(=O)oc2cc(S(=O)(=O)NCCC(=O)NCc3ccc(F)cc3)ccc21 -2.29%, Cc1ccc(C(C)C)c(OCCCn2c(=O)oc3ccccc32)c1 -9.07%, CC(CNS(=O)(=O)c1ccc2c(c1)CC(=O)N2C)c1ccccc1 (stereo unspecified) -6.75%, CCOC(=O)c1c(C)oc2nc(C)nc(NCCCN3CCN(c4ccc(F)cc4)CC3)c12 7.16%, COc1ccccc1NC(=O)c1ccc2oc(=O)c(S(=O)(=O)c3ccccc3)cc2c1 -12.5%, COc1ccc(C(=O)NCCn2cc(SCc3cc(C)ccc3C)c3ccccc32)cc1 -16.4%, Cc1cc(N2CCN(c3cccc(C)c3C)CC2)n2nc(C)c(-c3ccc(Cl)cc3)c2n1 -0.879%, CCOc1ccc(C2c3c(oc4ccccc4c3=O)C(=O)N2c2nnc(C)s2)cc1OC (stereo unspecified) -13.5%, COc1ccc(-n2c(-c3ccco3)nc3c(cnn3-c3ccccc3C)c2=O)cc1 -0.0309%, Cc1ccccc1CNC(=O)c1cc2cc(S(=O)(=O)N3CCCCC3)ccc2n1C 4.32%, Cc1cccc(Cn2cnc3c(cnn3-c3ccc(Cl)cc3)c2=O)c1 -9.95%, Cc1cc(C)n2c(Nc3ccccc3)c(-c3ccccc3)nc2n1 3.56%, Cc1cc(C)c2oc(C(=O)Nc3ccc(S(=O)(=O)N4CCC(C)CC4)cc3)cc(=O)c2c1 4.06%, Cc1ccc(CN2CCN(C3CCN(C(=O)Nc4ccccc4C(F)(F)F)CC3)C(=O)C2=O)cc1 1.13%, CCn1c(=O)cc(OCC(=O)N2CCN(c3ccccc3OC)CC2)c2ccccc21 -0.18%, Cc1ccc(S(=O)(=O)n2nc(-c3ccco3)nc2NCc2ccccc2Cl)cc1 2.64%, Cn1c(CNC(=O)CSc2nc(-c3cccc(Cl)c3)nc3cc(=O)[nH]n23)nc2ccccc21 4.48%, COc1cccc(NC(=O)C2CCN(c3nc4ccccc4nc3C(F)(F)F)CC2)c1 -27.4%, Cc1cccc(Cn2nnc(C(=O)Nc3cc(C)ccc3C)c2N)c1 -1.63%, Cc1cccc(C)c1NC(=O)CCCN1C(=O)CCn2nc(-c3cn(C)c4ccccc34)cc21 2.27%, Cc1ccc(CNC(=O)CCCn2c(=O)c3ccccc3n(Cc3ccccc3C)c2=O)cc1 4.13%, CC(NC(=O)c1ccc2c(c1)N(Cc1ccc(Cl)cc1)C(=O)c1ccccc1S2=O)c1ccccc1 (stereo unspecified) -1.05%, COc1ccc(Cl)cc1NC(=O)Cn1cnc2c1c(=O)n(C)c(=O)n2C 8.19%, CC(C)NC(=O)C1CCCN(c2ncnc3c2nc2n3CCCCC2)C1 (stereo unspecified) 3.46%, CCCN1CCN(c2cc3c(cc2F)c(=O)c(S(=O)(=O)c2ccc(Cl)cc2)cn3C)CC1 0.384%, COc1ccc(C(=O)NCC(c2ccc(N(C)C)cc2)N2CCc3ccccc32)cc1 (stereo unspecified) -20.4%, Cn1c(=O)n(C)c2cc(N3CCOCC3)c(NC(=O)c3c(F)cccc3F)cc21 -21.2%, Cc1cc(C)c2sc(NC(=O)c3ccc(S(=O)(=O)N4CCOCC4)cc3)nc2c1 0.839%, COc1cc(OC)c(NC(=O)Nc2c(C)n(C)n(-c3ccccc3)c2=O)cc1Cl 8.8%, CCc1cc2c(-c3ccccc3)cc(=O)oc2c2c1OCN(Cc1ccc(F)cc1)C2 -1.15%, CCC(Oc1ccccc1)C(=O)Nc1ccc(OCc2cc(=O)n3ccccc3n2)cc1 (stereo unspecified) -16.2%, CCOc1ccc(CNC(=O)C2Cc3ccccc3N2C(=O)CC)cc1 (stereo unspecified) 0%, COC(=O)c1ccccc1NC(=O)c1ccc2c(=O)n3c(nc2c1)CCCCC3 -5.33%, O=C(CN1C=NS(=O)(=O)c2ccc(C(F)(F)F)cc21)Nc1cccc(C(F)(F)F)c1 0.11%, CCOC(=O)c1cc(NC(=O)c2ccc(Cl)cc2)c(=O)n2c1oc1ccccc12 0.735%, O=C(Nc1ccc(Br)cc1)c1cccc(C(=O)Nc2ccc(Br)cc2)c1 -7.28%, O=S(=O)(c1ccc(Cl)cc1)c1nc(-c2ccccc2)oc1N1CCN(c2ccccc2)CC1 -0.436%, CCOc1ccc(C2CC(=O)c3c([nH]c(C(=O)OC4CCC(C)CC4)c3C)C2)cc1 (stereo unspecified) -13.1%

Reference: PubChem BioAssay AID493208 (National Center for Advancing Translational Sciences (NCATS), 2011)
